Test results from the GPR68 mutational scans of Howard et al. (2025).

B1: GPR68, Q15743 (parent)
chain: MGNITADNSSMSCTIDHTIHQTLAPVVYVTVLVVGFPANCLSLYFGYLQIKARNELGVYLCNLTVADLFYICSLPFWLQYVLQHDNWSHGDLSCQVCGILLYENIYISVGFLCCISVDRYLAVAHPFRFHQFRTLKAAVGVSVVIWAKELLTSIYFLMHEEVIEDENQHRVCFEHYPIQAWQRAINYYRFLVGFLFPICLLLASYQGILRAVRRSHGTQKSRKDQIQRLVLSTVVIFLACFLPYHVLLLVRSVWEASCDFAKGVFNAYHFSLLLTSFNCVADPVLYCFVSETTHRDLARLRGACLAFLTCSRTGRAREAYPLGAPEASGKSGAQGEEPELLTKLHPAFQTPNSPGSGGFPTGRLA

Assays:
[1] = variants of: B1; assay: cAMP reporter score (Enrich2 score, wild type = 0); higher = more signal; HEK293T, FACS bins
[2] = variants of: B1; assay: surface expression score (Enrich2 score, wild type = 0); higher = more signal; HEK293T, FACS bins

Variant | cAMP reporter score ([1]; pH 5.5) | cAMP reporter score ([1]; pH 6) | cAMP reporter score ([1]; pH 6, modulator: ogerin) | surface expression score [2] | cAMP reporter score ([1]; pH 6.5, modulator: ogerin)
MGNITADNSSMSCTIDHTIHQTLAPVVGVTVLVVGFPANCLSLYFGYLQIKARNELGVYLCNLTVADLFYICSLPFWLQYVLQHDNWSHGDLSCQVCGILLYENIYISVGFLCCISVDRYLAVAHPFRFHQFRTLKAAVGVSVVIWAKELLTSIYFLMHEEVIEDENQHRVCFEHYPIQAWQRAINYYRFLVGFLFPICLLLASYQGILRAVRRSHGTQKSRKDQIQRLVLSTVVIFLACFLPYHVLLLVRSVWEASCDFAKGVFNAYHFSLLLTSFNCVADPVLYCFVSETTHRDLARLRGACLAFLTCSRTGRAREAYPLGAPEASGKSGAQGEEPELLTKLHPAFQTPNSPGSGGFPTGRLA [Y28G] | -1.16 | -1.79 | -2 | -1.08 | 
MGNITADNSSMSCTIDHTIHQTLAPVVDVTVLVVGFPANCLSLYFGYLQIKARNELGVYLCNLTVADLFYICSLPFWLQYVLQHDNWSHGDLSCQVCGILLYENIYISVGFLCCISVDRYLAVAHPFRFHQFRTLKAAVGVSVVIWAKELLTSIYFLMHEEVIEDENQHRVCFEHYPIQAWQRAINYYRFLVGFLFPICLLLASYQGILRAVRRSHGTQKSRKDQIQRLVLSTVVIFLACFLPYHVLLLVRSVWEASCDFAKGVFNAYHFSLLLTSFNCVADPVLYCFVSETTHRDLARLRGACLAFLTCSRTGRAREAYPLGAPEASGKSGAQGEEPELLTKLHPAFQTPNSPGSGGFPTGRLA [Y28D] | -1.78 | -1.16 | -1.53 | -1.44 | -1.37
MGNITADNSSMSCTIDHTIHQTLAPVVEVTVLVVGFPANCLSLYFGYLQIKARNELGVYLCNLTVADLFYICSLPFWLQYVLQHDNWSHGDLSCQVCGILLYENIYISVGFLCCISVDRYLAVAHPFRFHQFRTLKAAVGVSVVIWAKELLTSIYFLMHEEVIEDENQHRVCFEHYPIQAWQRAINYYRFLVGFLFPICLLLASYQGILRAVRRSHGTQKSRKDQIQRLVLSTVVIFLACFLPYHVLLLVRSVWEASCDFAKGVFNAYHFSLLLTSFNCVADPVLYCFVSETTHRDLARLRGACLAFLTCSRTGRAREAYPLGAPEASGKSGAQGEEPELLTKLHPAFQTPNSPGSGGFPTGRLA [Y28E] | -2.46 | 0.06 | -3.37 | -3.11 | 
MGNITADNSSMSCTIDHTIHQTLAPVVFVTVLVVGFPANCLSLYFGYLQIKARNELGVYLCNLTVADLFYICSLPFWLQYVLQHDNWSHGDLSCQVCGILLYENIYISVGFLCCISVDRYLAVAHPFRFHQFRTLKAAVGVSVVIWAKELLTSIYFLMHEEVIEDENQHRVCFEHYPIQAWQRAINYYRFLVGFLFPICLLLASYQGILRAVRRSHGTQKSRKDQIQRLVLSTVVIFLACFLPYHVLLLVRSVWEASCDFAKGVFNAYHFSLLLTSFNCVADPVLYCFVSETTHRDLARLRGACLAFLTCSRTGRAREAYPLGAPEASGKSGAQGEEPELLTKLHPAFQTPNSPGSGGFPTGRLA [Y28F] | -0.415 | -1.07 | -0.54 | 0.53 | -0.999

Scores with a large standard error are left out. The source holds two more conditions with little spread; they are left out. Read del as a deletion of the residues named and ins as an insertion between two positions. For part of these data: How much ogerin was present is not stated here.
